# From PubChem BioAssay AID1347073 (National Center for Advancing Translational Sciences (NCATS), 2019)
# About 200 (0.44%) of roughly 45,000 compounds were called active. Another 7% or so got no clear call; they are omitted. Calls follow the shape of the dose curve; as a rule, active = well fitted activation curve with a large enough effect; inconclusive = small, poorly fitted or top-dose-only effect; inactive = no such curve, though single readings can be large or run the other way. Some of the results follow.
# Assay: qHTS of TDP-43 Inhibitors: NCGC Sytravon Library Screen; also: 0% is about no effect; nearly all actives have a fitted effect of over 55% in size
# Conditions: yeast TDP-43 toxicity rescue, BacTiter-Glo growth, 24 h; series mostly up to 46.1 µM; growth rescue (activation): at the top concentration
# Method in brief: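 TDP-43-expressing yeast, pregrown in raffinose, seeded at OD600 0.02 in galactose medium with compound for 24 hr at 30 deg C. Growth read by BacTiter-Glo luminescence, so rescue of toxicity appears as activation.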
row,SMILES,growth rescue (activation)
1,O=C(COC(=O)/C=C/c1ccc(OC(F)F)cc1)NCc1cccs1,inactive: 8.98%
2,COc1cc(NC(=O)Nc2nc(C(N)C3CCCCC3)cs2)cc(OC)c1OC (centres undefined),inactive: 12%
3,COc1ccc(CNC(=O)CN(Cc2ccc(Cl)cc2)C(=O)c2csnn2)cc1,inactive: -3.36%
4,CC(=O)N(C(C)=O)N1C(=O)c2cccc3c(N4CCOCC4)ccc(c23)C1=O,inactive: -21.9%
5,CCn1c(O)c(N=NC(=O)CNc2ccc(C)cc2)c2ccccc21,inactive: 24.9%
6,COc1ccc(C2=NO[C@@H]3[C@@H]4C[C@@H]([C@H]5C(=O)N(C)C(=O)[C@@H]45)[C@H]23)cc1,inactive: 8.96%
7,Cc1ccc(OCc2ccc(C(=O)O)o2)c([N+](=O)[O-])c1,inactive: -6.3%
8,C/C(CC(=O)Nc1ccc(Cl)cc1Cl)=N\NC(=O)c1cnccn1,inactive: 12.1%
9,O=C(CSCc1ccccc1)Nc1ccc2c(c1)C(=O)NC2=O,inactive: 14.3%
10,Cc1nnc(NC(=O)c2cccc(S(=O)(=O)N3CCc4ccccc43)c2)s1,inactive: 3.27%
11,CN(C)c1ccc(C(CNS(=O)(=O)c2ccc(F)cc2)c2c[nH]c3ccccc23)cc1 (centres undefined),inactive: -2.19%
12,COc1ccc(S(=O)(=O)N2CCC(C(=O)NCc3ccc(C)cc3)CC2)cc1,inactive: 16.8%
13,CCCn1c(SCC(=O)Nc2nnc(CC)s2)nnc1-c1ccncc1,inactive: 3.6%
14,COc1ccc(C)cc1NC(=O)C(OC(=O)CNC(=O)c1ccc(Br)cc1)c1ccccc1 (centres undefined),inactive: 22.5%
15,O=C(O)CC1SC(N/N=C/c2ccc(Br)cc2)NC1=O (centres undefined),inactive: 6.4%
16,COc1ccc(CN2CCN(Cc3cc(=O)oc4cc(C)ccc34)CC2)c(OC)c1OC,inactive: 4.97%
17,CCn1c(-c2ccccn2)nc2cc(S(=O)(=O)N(C)C)ccc21,inactive: 16.6%
18,O=C(Nc1ccc(S(=O)(=O)Nc2ncccn2)cc1)c1cncc(Br)c1,inactive: -18.6%
19,COc1cccc(C(C)N(C)Cc2nc(-c3ccoc3)oc2C)c1 (centres undefined),inactive: -7.49%
20,CN(C)C(CNC(=O)CNC(=O)c1ccc2ccccc2c1)c1ccccc1 (centres undefined),inactive: 3.45%
21,O=C(Oc1cccc(N2C(=O)C3C4c5ccccc5C(c5ccccc54)C3C2=O)c1)c1ccco1 (centres undefined),inactive: 21.5%
22,O=C(COC(=O)C1CC2C=CC1C2)Nc1cccc(S(=O)(=O)N2CCCCCC2)c1 (centres undefined),inactive: 17.5%

row,SMILES,growth rescue (activation)
1,COC(=O)c1c(NC(=O)c2cccnc2)sc(C(=O)N(C)C)c1C,inactive: -11%
2,CC1=NN(c2cccc(Cl)c2)C(=O)C1,inactive: -4.83%
3,CSCCC(NC(=O)c1cc([N+](=O)[O-])ccc1Cl)C(=O)O (centres undefined),inactive: -0.513%
4,Cc1cc(C)n(C(=O)c2ccc([N+](=O)[O-])cc2Cl)n1,inactive: 13.3%
5,CSc1ccc(S(=O)(=O)NCCCn2ccnc2)cc1,inactive: -0.835%
6,COc1ccc(CNC(=O)COC(=O)c2c(C)nn(-c3ccccc3)c2C)cc1OC,inactive: 30.6%
7,CC(=O)C12CCCCC1CC1[C@@H]3CC(C)C4=CC(=O)CC[C@]4(C)C3CC[C@@]12C (some centres undefined),inactive: -9.73%
8,O=C(Nc1ccccc1C(=O)N/N=C/c1ccccc1)c1ccco1,inactive: 11.8%
9,O=C(C/C=N\OCc1ccc([N+](=O)[O-])cc1)Nc1ccc(Br)cc1,inactive: 2.93%
10,COc1cccc(C(C)(O)c2nc(-c3cccc(C(=O)O)c3)cs2)c1 (centres undefined),inactive: 5.03%
11,Cc1csc(NC(=O)CS(=O)(=O)Cc2ccccc2)n1,inactive: -18.1%
12,CC(C)n1c(SCC(=O)N2CCCCC2)nc2c1c(=O)n(C)c(=O)n2C,inactive: 3.76%
13,COc1ccc(NS(=O)(=O)c2cc(NC(=O)CCSc3ccccc3)ccc2OC)cc1,inactive: 19.5%
14,COc1ccc(-n2nc(C(=O)NCC(=O)NCCc3ccc(OC)c(OC)c3)c3ccccc3c2=O)cc1Cl,inactive: -7.59%
15,CCN(CC)CCCNC(=O)c1oc2ccc(S(=O)(=O)N3CC(C)CC(C)C3)cc2c1C (centres undefined),inactive: -2.57%
16,O=S(=O)(NCC(c1cccnc1)N1CCN(c2ccccc2)CC1)c1cccs1 (centres undefined),inactive: 26.9%
17,O=[N+]([O-])c1ccc(CN2CCN(c3ccc4ccccc4n3)CC2)cc1,inactive: -3.61%
18,Cc1ccc(N(C(=O)CC2NC(=O)NC2=O)C2(C(=O)NC3CCCC3)CCCCC2)cc1 (centres undefined),inactive: -4.7%
19,CC1Cc2ccccc2N1Cc1cccc(S(=O)(=O)N(C)C)c1 (centres undefined),inactive: 21.1%
20,O=C(CSc1ncccn1)NC(=O)NCc1ccco1,inactive: 3.2%
21,COc1ccc(S(=O)(=O)N(CC(=O)NC2CC2)Cc2ccccc2)cc1,inactive: 16.8%
22,COc1ccccc1NS(=O)(=O)c1cccc(C(=O)N/N=C/c2ccc(OCC(=O)O)cc2)c1,inactive: 8.83%

row,SMILES,growth rescue (activation)
1,O=C(Cn1cc(C(F)(F)F)ccc1=O)Nc1ccc2c(c1)OCCO2,inactive: -4.61%
2,O=S(=O)(c1ccc(Br)cc1Cl)N1CCN(CCO)CC1,inactive: 1.43%
3,CCCCOC(=O)CSC1=C(C#N)C(c2cccnc2)C(C(=O)OCC)=C(c2ccccc2)N1 (centres undefined),inactive: 4.47%
4,COc1ccc(N2C3=C(C(=O)CC(C)(C)C3)C(c3ccccc3OC)C3=C2CC(C)(C)CC3=O)cc1,inactive: 8.03%
5,COc1ccccc1NC(=O)CN(Cc1ccco1)C(=O)c1ccc(=O)[nH]c1,inactive: -10.6%
6,CCOc1cccc(C2C(C(=O)c3ccc(C)o3)=C(O)C(=O)N2c2nnc(C)s2)c1 (centres undefined),inactive: -4.2%
7,CC1CC(C)CN(S(=O)(=O)N2CCC(C(=O)NCc3ccco3)CC2)C1 (centres undefined),inactive: -4.61%
8,Cc1cc(Cl)ccc1NC(=O)Cn1cncn1,inactive: 7.12%
9,O=C(CCl)N1N=C(c2ccco2)CC1c1ccco1 (centres undefined),inactive: 1.37%
10,COc1ccc(CN2C(=O)CC(C(=O)NCCc3ccc(S(N)(=O)=O)cc3)SC2=Nc2ccccc2)cc1 (centres undefined),inactive: 5.11%
11,CCC(Sc1nncn2c1cc1oc(C)cc12)C(=O)Nc1ccc(F)cc1 (centres undefined),inactive: 24.4%
12,NC(c1ccccc1)c1csc(NC(=O)Nc2cccc(Cl)c2)n1 (centres undefined),inactive: 22.6%
13,O=C(Nc1ccccc1C(=O)Nc1ccccc1)c1cccs1,inactive: 0.606%
14,O=C(NCC(=O)N1CCCC1)c1ccccc1F,inactive: 2.55%
15,COc1cccc(-c2csc(NC3OC(=O)c4c3ccc(OC)c4OC)n2)c1 (centres undefined),inactive: 3%
16,Cc1ccc(C)c(-n2cc(-c3ccc(Cl)cc3)nc2SCC(=O)NC2CCS(=O)(=O)C2)c1 (centres undefined),inactive: 2.93%
17,NS(=O)(=O)c1cccc(NC(=O)CN2CCN(S(=O)(=O)c3ccc4c(c3)OCCO4)CC2)c1,inactive: 10.8%
18,COc1cc(C(=O)OCC(=O)c2cc(C)n(CC3CCCO3)c2C)ccc1OCC(=O)N1CCOCC1 (centres undefined),inactive: 20.2%
19,Cc1ccc(-c2cc(NC(=O)c3ccccc3)on2)cc1,inactive: -0.839%
20,CCc1ccccc1NC(=S)N(Cc1ccc(C(=O)O)cc1)Cc1ccc(OC)c(OC)c1,inactive: 4.02%
